Reference: article PMC4336329 (PLoS ONE, 2015)
Out of some 310,000 compounds screened, about 14,000 (4.5%) showed an effect of 50% or more. Effects have a minus sign here. The list shows a part of the results.

What follows are molecules tested against human ether-à-go-go-related gene (hERG) potassium channel (human, UniProt Q12809) (assay: primary screen, population patch clamp on CHO cells stably expressing hERG).
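Also: peak tail current of the secondary pulse compared with the same well before compound.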

Chain of human ether-à-go-go-related gene (hERG) potassium channel (Q12809 whole entry, looked up): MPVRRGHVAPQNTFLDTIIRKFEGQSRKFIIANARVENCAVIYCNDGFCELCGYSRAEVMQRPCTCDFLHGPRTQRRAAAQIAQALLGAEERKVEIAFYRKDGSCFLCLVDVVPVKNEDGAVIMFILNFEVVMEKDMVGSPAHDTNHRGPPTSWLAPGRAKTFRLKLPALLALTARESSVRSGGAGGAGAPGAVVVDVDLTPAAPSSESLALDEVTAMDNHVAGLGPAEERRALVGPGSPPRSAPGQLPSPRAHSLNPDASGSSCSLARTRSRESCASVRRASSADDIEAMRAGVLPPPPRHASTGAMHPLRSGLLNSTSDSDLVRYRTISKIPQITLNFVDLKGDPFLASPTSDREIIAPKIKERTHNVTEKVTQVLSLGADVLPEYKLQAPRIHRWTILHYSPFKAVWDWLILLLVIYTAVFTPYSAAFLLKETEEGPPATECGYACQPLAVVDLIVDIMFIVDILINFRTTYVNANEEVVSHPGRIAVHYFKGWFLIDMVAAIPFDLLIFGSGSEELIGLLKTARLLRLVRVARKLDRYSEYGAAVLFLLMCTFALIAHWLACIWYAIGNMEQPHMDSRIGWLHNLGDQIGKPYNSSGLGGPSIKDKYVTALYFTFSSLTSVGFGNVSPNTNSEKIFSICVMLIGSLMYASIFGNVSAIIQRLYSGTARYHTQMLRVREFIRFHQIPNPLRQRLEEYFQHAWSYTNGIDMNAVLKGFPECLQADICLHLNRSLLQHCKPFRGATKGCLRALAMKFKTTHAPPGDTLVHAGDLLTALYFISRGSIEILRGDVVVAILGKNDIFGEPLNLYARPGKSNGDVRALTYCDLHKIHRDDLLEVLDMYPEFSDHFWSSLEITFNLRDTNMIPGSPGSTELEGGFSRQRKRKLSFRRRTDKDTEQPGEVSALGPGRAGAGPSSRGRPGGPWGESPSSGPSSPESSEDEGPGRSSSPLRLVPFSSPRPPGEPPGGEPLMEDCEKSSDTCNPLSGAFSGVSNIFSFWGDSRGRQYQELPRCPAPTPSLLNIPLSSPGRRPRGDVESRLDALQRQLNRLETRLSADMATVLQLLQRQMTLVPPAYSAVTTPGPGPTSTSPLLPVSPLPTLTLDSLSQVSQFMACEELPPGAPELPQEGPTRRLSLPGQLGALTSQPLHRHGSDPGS

| Compound | hERG current change (%, negative = inhibition) at 10uM [%] |
| --- | --- |
| O=S(=O)(Nc1ccc(-c2cn3ccccc3n2)cc1)c1ccccc1 | -31.4 |
| COc1ccccc1NC(=S)NC(NC(=O)C(C)C)C(Cl)(Cl)Cl (stereo not shown) | 6.15 |
| N#Cc1ccc(OCC(=O)OCCCOC(=O)COc2ccc(C#N)cc2)cc1 | -66.8 |
| Cc1cccc(C(=O)Nc2ccc(NC(=O)c3ccccc3)cc2)c1 | -13.1 |
| COc1ccc(S(=O)(=O)N2CCC(C(=O)Nc3ccccc3C)CC2)c2cccnc12 | -10.9 |
| O=C(COc1c(Cl)cccc1Cl)NN1C(=O)CSC1=S | 18.4 |
| COc1ccc(CCNCc2sccc2C)cc1OC.Cl | 6.32 |
| O=S(=O)(c1ccccc1)N1CCC(c2ccccc2)CC1 | 9.81 |
| CCCN(C(=O)Cc1nc(N)n[nH]1)C1(C(=O)Nc2c(C)cccc2C)CCCCC1 | 5.99 |
| Cc1c(C(=O)c2ccc(Br)cc2)c(=O)n(C)c(=O)n1C | 7.09 |
| COc1ccc(/C(C)=N\O)cc1OC | 0.298 |
| COc1cccc(C(=O)CN(C(=O)c2ccc(Cl)c(Cl)c2)N2C(=O)c3ccccc3C2=O)c1 | 1.22 |
| Cc1[nH]c2ccccc2c1SCC(=O)NC1CCCCC1 | 39.9 |
| CCOc1ncccc1C(=O)Nc1ccc2c(c1)OCO2 | 17.8 |
| CCCN1C(=O)c2cc(C(=O)NCc3ccc(OC)cc3)ccc2C1O (stereo not shown) | -4.45 |
| CCC(C)(C)NC(=O)CCn1c(-c2ccccc2)cc(C(C)=O)c1C | -5.33 |
| Cc1ccc(S(=O)(=O)N2CCC(C(=O)OCC(=O)N(C)Cc3ccccc3)CC2)cc1C | -12 |
| Fc1ccc(/C=N/c2c(-c3ccc(F)cc3)nc3n2CCS3)cc1 | -4.46 |
| CCc1nc(-c2ccc(OC)c(OC)c2)cc2cc(OC)c(OC)cc12 | 20.7 |
| COc1ccc(C(=O)c2coc3ccc(OC(C)=O)cc23)cc1 | 24.9 |
| COc1ccc(Cl)cc1N=Cc1c(O)cc(C)oc1=O | 2.51 |
| COc1cccc(C(=O)Nc2cccc(-c3ccc(N4CCOCC4)nn3)c2)c1OC | -4.72 |
| O=C(O)CNC(=O)c1ccccc1Br | 9.63 |
| O=C(c1ccccc1)N(CCO)Cc1cc2cc3c(cc2[nH]c1=O)OCCO3 | 27.6 |
| Cc1nn(-c2ccccc2)c(N2CCCC2)c1/C=N/NC(=O)c1cc2ccccc2cc1O | -55.5 |
